“Also recorded” adds a separate entry of the source. At least one peptide structure holds a part that was inferred or is arguable (an end, a ring closure or a residue). Some entries repeat one wording, which the source may state once for all of them. Positions of bridges follow the written chain, without caps; N, C: chain ends. Residues, ends and D or L forms follow the SMILES beside them.
Legend:
Format in all cases: physicochemical
[1] = Resistance to elevated temperature, HPLC; conditions: HPLC
Method in brief: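 Peptides were incubated at room temperature, 70° C or 100° C for one hour in ddH2O; another protocol used 70° C, 75° C or 100° C for one hour in 0.5 mM PBS, then pelleting and analysis of the supernatant. Remaining peptide was measured by C-18 RP-HPLC, 5–45% acetonitrile/0.1% TFA over 10 min.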

[2] = Resistance to reduction by DTT, RP-HPLC; conditions: 10 mM DTT; HPLC vs non-reduced peptide
Method in brief: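 Peptide (12.5 μg from a 2 mg/ml stock, or 0.015 mM final in PBS) was held 30 min at room temperature with or without 10 mM DTT. Reduced and non-reduced forms were compared by C-18 RP-HPLC using a 5–45% acetonitrile/0.1% TFA gradient over 10 min, with detection at 214 and 280 nm.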

[3] = Combined resistance grouping of hitchin peptides (FIG. 27, from Table 2 data); conditions: FIG. 27 grouping of hitchin peptides
Description: As shown by the data in TABLE 2, the tested peptides of the present disclosure show a range of resistance to proteases, reduction, and high temperature. The peptides were classified as high, medium, or low for each condition. […] For example, after a peptide is treated at 100° C., if the HPLC peak of the peptide is mostly absent as compared to HPLC peak of the peptide not treated at 100° C., then the peptide is classified as low or having low resistance to 100° C. After a peptide is treated with reducing conditions, if there is no or very minimal HPLC peak that overlaps with the HPLC peak of the peptide not treated with reducing conditions, then the peptide is classified as low or having low resistance to reducing conditions.
The peptides with the highest resistance data were further analyzed. […] The six peptides that were further tested were peptides comprising the sequences of SEQ ID NO: 27, SEQ ID NO: 24, SEQ ID NO: 6, SEQ ID NO: 10, SEQ ID NO: 12, and SEQ ID NO: 57, which were all hitchins. […] FIG. 27C is a sequence analysis of SEQ ID NO: 27, SEQ ID NO: 24, SEQ ID NO: 6, SEQ ID NO: 10, SEQ ID NO: 12, and SEQ ID NO: 57 from FIG. 27B. FIG. 27C identifies which amino acids are present at each position in SEQ ID NO: 27, SEQ ID NO: 24, SEQ ID NO: 6, SEQ ID NO: 10, SEQ ID NO: 12, and SEQ ID NO: 57. For example, at position one, all peptide sequences comprise a G amino acid residue; at position two, all peptide sequences comprise an S amino acid residue; at position three, all peptide sequences comprise either G, Q, or V amino acid, or null; and at position four, all peptide sequences comprise V, R, or K amino acid, or null. […] SEQ ID NO: 167 and SEQ ID NO: 168 describe sequences of peptides that are particularly resistant to reduction, pepsin, 75° C., and 100° C., which would typically degrade peptides. […] Additionally, SEQ ID NO: 169 describes sequences of peptides that are also particularly resistant to trypsin.

[4] = Circular dichroism in neutral, SDS and acidic buffers
Description: CD spectra were measured with a Jasco J-720W spectropolarimeter using a 1.0 mm path length cell. Lyophilized peptide samples were resuspended in ultra pure water. CD runs were carried out by diluting peptides in 20 mM phosphate buffer saline (pH 7.4), 20 mM phosphate buffer saline (pH 7.4) supplemented with 1% sodium dodecyl sulfate (SDS), or phosphate buffer saline at pH 4. Peptides were diluted to 15-25 μM in concentration. Data are shown in terms of total molar ellipticity [θ]; (deg cm^2 dmol^−1).

## CSCC[C@@H]1NC(=O)[C@@H]2CSSC[C@H](NC(=O)[C@H](CCCCN)NC(=O)[C@@H](NC(=O)[C@H](CC(=O)O)NC(=O)[C@@H](NC(=O)[C@H](Cc3ccccc3)NC(=O)[C@H](CCC(N)=O)NC(=O)[C@H](CO)NC(=O)CN)[C@@H](C)O)C(C)C)C(=O)N[C@@H]([C@@H](C)O)C(=O)NCC(=O)N[C@@H](CO)C(=O)N[C@@H](CCCCN)C(=O)N[C@@H](CCC(N)=O)C(=O)N[C@H]3CSSC[C@H](NC(=O)[C@H](CCCCN)NC(=O)CNC(=O)[C@H](CC(N)=O)NC1=O)C(=O)N[C@@H](CCCNC(=N)N)C(=O)N[C@H](C(=O)N[C@@H](Cc1ccc(O)cc1)C(=O)N[C@@H](CO)C(=O)O)CSSC[C@H](NC(=O)[C@H](C(C)C)NC(=O)[C@@H]1CCCN1C(=O)[C@H](Cc1c[nH]c4ccccc14)NC3=O)C(=O)N[C@@H](CCCCN)C(=O)N[C@@H](CCC(N)=O)C(=O)N[C@@H](CCSC)C(=O)N[C@@H](Cc1ccccc1)C(=O)NCC(=O)N[C@@H](CCCCN)C(=O)N1CCC[C@H]1C(=O)N[C@@H](CC(N)=O)C(=O)NCC(=O)N[C@@H](CCCCN)C(=O)N2 [SEQ ID NO: 12] (H-GSQFTDVKCTGSKQCWPVCKQMFGKPNGKCMNGKCRCYS-OH; disulfide 9-30, 15-35, 19-37)
[1]; 75° C. for 1 hour
  resistance to incubation at 75° C. (in words): highly resistant
[1]; 100° C. for 1 hour
  resistance to incubation at 100° C. (in words): highly resistant
[2]
  resistance to reduction by DTT (in words): moderately resistant
[3]
  combined resistance to reduction, pepsin and elevated temperatures such as 75° C. and 100° C.: highly resistant

## CC[C@H](C)[C@@H]1NC(=O)[C@H](CCCCN)NC(=O)[C@@H](NC(=O)[C@H](CCCCN)NC(=O)[C@@H](NC(=O)[C@H](CC(N)=O)NC(=O)[C@@H](NC(=O)[C@@H](NC(=O)[C@@H](NC(=O)CNC(=O)[C@H](CO)NC(=O)CN)C(C)C)[C@@H](C)CC)[C@@H](C)CC)C(C)C)CSSC[C@@H]2NC(=O)[C@H](CCCCN)NC(=O)CNC(=O)[C@H](Cc3ccccc3)NC(=O)[C@H](CCCNC(=N)N)NC(=O)[C@H](CCSC)NC(=O)CNC(=O)[C@H](C)NC(=O)[C@H](CCCCN)NC(=O)[C@H](CCCCN)NC(=O)[C@@H]3CSSC[C@@H](C(=O)N[C@H](C(=O)N4CCC[C@H]4C(=O)N[C@@H](CCCCN)C(=O)O)[C@@H](C)O)NC(=O)[C@H](Cc4c[nH]cn4)NC(=O)[C@H](CSSC[C@H](NC(=O)[C@H](CCC(N)=O)NC(=O)[C@H](CCCNC(=N)N)NC(=O)[C@H](CO)NC1=O)C(=O)N[C@@H](CC(C)C)C(=O)N[C@@H](CCC(=O)O)C(=O)N1CCC[C@H]1C(=O)N3)NC(=O)[C@H](CCCCN)NC(=O)CNC(=O)[C@H](CC(N)=O)NC(=O)[C@H](CCSC)NC2=O [SEQ ID NO: 57]
[3]
  combined resistance to reduction, pepsin and elevated temperatures such as 75° C. and 100° C.: highly resistant

## CC[C@H](C)[C@@H]1NC(=O)[C@@H]2CSSC[C@H](NC(=O)[C@H](CCCCN)NC(=O)[C@@H](NC(=O)[C@H](CC(N)=O)NC(=O)[C@@H](NC(=O)[C@@H]3CCCN3C(=O)[C@@H](NC(=O)CNC(=O)[C@H](CO)NC(=O)CN)C(C)C)[C@@H](C)CC)C(C)C)C(=O)N[C@@H](CCCNC(=N)N)C(=O)NCC(=O)N[C@@H](CO)C(=O)N[C@@H](CCCNC(=N)N)C(=O)N[C@@H](CC(=O)O)C(=O)N[C@H]3CSSC[C@H](NC(=O)[C@H](CCCCN)NC(=O)[C@H](CO)NC(=O)[C@H](CC(N)=O)NC1=O)C(=O)N[C@@H](Cc1c[nH]cn1)C(=O)N[C@H](C(=O)N[C@H](C(=O)N1CCC[C@H]1C(=O)O)[C@@H](C)O)CSSC[C@H](NC(=O)[C@@H]1CCCN1C(=O)[C@H](CC(=O)O)NC(=O)[C@H](CC(C)C)NC3=O)C(=O)N[C@@H](CCCCN)C(=O)N[C@@H](CCCCN)C(=O)N[C@@H](C)C(=O)NCC(=O)N[C@@H](CCSC)C(=O)N[C@@H](CCCNC(=N)N)C(=O)N[C@@H](Cc1ccccc1)C(=O)NCC(=O)N[C@@H](CCCCN)C(=O)N2 [SEQ ID NO: 27] (H-GSGVPINVKCRGSRDCLDPCKKAGMRFGKCINSKCHCTP-OH; disulfide 10-30, 16-35, 20-37)
[4]; pH 4
  secondary structure by CD in phosphate buffer saline at pH 4: retained most of its secondary structure
[4]; pH 7.2
  secondary structure by CD in phosphate buffer saline at pH 7.2: retained most of its secondary structure
[4]; pH 7.2, 1% sodium dodecyl sulfate
  secondary structure by CD in phosphate buffer saline at pH 7.2 with 1% SDS: retained most of its secondary structure; also recorded: resistant
[2]
  resistance to reduction by DTT (in words): highly resistant; also recorded: remained intact
[3]
  combined resistance to reduction, pepsin and elevated temperatures such as 75° C. and 100° C.: highly resistant

From patent US20190375786A1, “STABLE PEPTIDES AND METHODS OF USE THEREOF” (Fred Hutchinson Cancer Research Center, priority 2016, published 2019)
